Measurements reported in PubChem BioAssay AID488969 (Vanderbilt High Throughput Screening Facility, 2010).
In all, about 110,000 compounds were measured (“z-score”: median about -0.1, highest 2% from about 2 on). The list shows a part of the results.

The compounds below were run against Metabotropic glutamate receptor 8 (Rattus norvegicus) (UniProt P70579) (assay: mGluR8 Gi/Go-coupled signaling modulation – cell-based, rat, thallium flux, HTS, primary screen (AID 488969)). Details: HEK293 rat mGluR8, GIRK (G protein-gated inwardly rectifying potassium channel) thallium flux, FluoZin2; at 10 µM; stronger effect = higher value; submaximal glutamate (EC20) added with thallium.
UniProt P70579, sequence (P70579 whole entry, looked up): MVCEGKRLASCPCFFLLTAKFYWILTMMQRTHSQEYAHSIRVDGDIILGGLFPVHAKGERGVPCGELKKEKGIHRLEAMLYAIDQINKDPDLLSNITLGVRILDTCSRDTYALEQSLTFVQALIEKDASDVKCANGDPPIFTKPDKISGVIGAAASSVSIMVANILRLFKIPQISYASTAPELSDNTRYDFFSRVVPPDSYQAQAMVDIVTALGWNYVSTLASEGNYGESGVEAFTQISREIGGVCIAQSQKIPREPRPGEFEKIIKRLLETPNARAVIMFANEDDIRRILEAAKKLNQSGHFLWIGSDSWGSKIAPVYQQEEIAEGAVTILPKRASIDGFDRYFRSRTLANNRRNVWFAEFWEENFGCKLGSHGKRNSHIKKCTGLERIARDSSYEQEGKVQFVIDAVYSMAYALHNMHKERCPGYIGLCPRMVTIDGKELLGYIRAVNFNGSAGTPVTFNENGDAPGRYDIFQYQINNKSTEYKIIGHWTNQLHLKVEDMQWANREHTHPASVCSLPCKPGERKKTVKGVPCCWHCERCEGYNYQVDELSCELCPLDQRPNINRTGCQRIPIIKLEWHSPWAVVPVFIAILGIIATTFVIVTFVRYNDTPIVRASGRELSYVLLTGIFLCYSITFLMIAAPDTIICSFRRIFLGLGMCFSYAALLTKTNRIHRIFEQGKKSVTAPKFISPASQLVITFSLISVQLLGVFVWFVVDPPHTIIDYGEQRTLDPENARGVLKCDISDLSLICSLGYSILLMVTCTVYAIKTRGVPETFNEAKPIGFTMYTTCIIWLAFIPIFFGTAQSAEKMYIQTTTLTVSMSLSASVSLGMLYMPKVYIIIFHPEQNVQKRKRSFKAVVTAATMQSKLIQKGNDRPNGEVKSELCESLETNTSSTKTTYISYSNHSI
For `CC(=O)Nc1ccc(SCC(=O)c2cc(C)n(Cc3cccs3)c2C)cc1`, the z-score was -0.335.
Work on `O=[N+]([O-])c1c(NCCO)cc(N2CCC3(CC2)OCCO3)c2nonc12` yielded a z-score of 0.128.
In the case of `COc1ccccc1-c1ccc(Nc2cccc(C(F)(F)F)c2)nn1`, the z-score is reported as 0.399.
In the case of `CC(C)CC(=O)N1CCN(Cc2ccc3c(c2)OCO3)CC1`, the z-score is reported as -0.28.
`O=C1NC2(CCc3ccccc32)C(=O)N1CCOc1ccc(Cl)cc1` (centres undefined) was tested, and the z-score was -0.107.
Work on `CCC(=O)NC(c1ccccc1Cl)c1c(O)ccc2ccccc12` (centres undefined) yielded a z-score of -0.449.
In the case of `Cc1c(NC(=O)c2cc3ccccc3c(=O)s2)c(=O)n(-c2ccccc2)n1C`, the z-score is reported as -0.205.
`CCOC(=O)N1CCN(C(=O)CSc2nnc(-c3cc(OC)cc(OC)c3)o2)CC1` was tested, and the z-score was -1.14.
Work on `CC1(C)CC(=O)C=C(NCCN2CCN(C(=O)Nc3ccc(Cl)cc3)CC2)C1` yielded a z-score of -0.625.
`O=S(=O)(/N=C(/Sc1ccccc1)c1ccccc1)c1ccccc1` gave a z-score of -0.61.
For `CCOC(=O)c1sc(-c2ccccc2)cc1NC(=O)Nc1ccccc1`, the z-score was -0.034.
In the case of `CC1Oc2ccccc2C=C1/C=C1/SC(N2CCOCC2)=NC1=O` (centres undefined), the z-score is reported as -0.342.
Work on `CC1=NN(c2ccc(Cl)c(C(=O)O)c2)C(=O)C1` yielded a z-score of -0.0421.
For `Cc1cc(C)nc(Nc2ncc(O)n2-c2ccc(C)c(C)c2)n1`, the z-score was -0.225.
Work on `CSc1ccc(CNc2ccccn2)cc1` yielded a z-score of -1.02.
Compound `Cc1ccc(Nc2n[nH]c(C)c2[N+](=O)[O-])cc1C` has a z-score of 2.51.
`Cc1cccc(N(C(=O)c2csnn2)C(C(=O)NC(C)(C)C)c2ccncc2)c1` (centres undefined) gave a z-score of -0.134.
For `C=COCCn1c(-c2nonc2N)nc2ccccc21`, the z-score was 0.256.
For `COC(=O)Cn1ncc(N2C3CC(CC(C)(C)C3)C2C)c(Cl)c1=O` (centres undefined), the z-score was -0.196.
With `CNC(=O)NCCN1CCCC1=O` the z-score was 0.0396.
For `FC(F)(F)c1nnc2ccc(-n3ccnc3)nn12`, the z-score was 0.0397.
`COc1cc(/C=c2\sc3n(c2=O)CCCN=3)ccc1O` was tested, and the z-score was 0.13.
For `C=CCNC(=S)Nc1ccc(F)cc1F`, the z-score was -0.172.
`COc1cccc(/C=N/n2c(C)nc3ccccc32)c1OC` showed a z-score of -0.136.
With `CCOc1cc(N2CCOCC2)c(OCC)cc1NC(=O)CN1CCC(Cc2ccccc2)CC1` the z-score was -0.185.
Compound `Cc1ccccc1CN1CCNC1=O` has a z-score of -0.251.
In the case of `CNC(=S)Nc1ccc(Nc2ccccc2)cc1`, the z-score is reported as 0.0658.
In the case of `Cc1ccc(NC(=O)CN2C(=O)N/C(=C/c3cccn3-c3ccc(C(=O)O)cc3)C2=O)cc1`, the z-score is reported as -0.0674.
In the case of `Cc1oc(CC(C)C)cc1C(=O)Nc1cccc2ccccc12`, the z-score is reported as 0.0109.
`CCCCNC(=O)C1CC(c2c(Cl)cccc2Cl)=NO1` (centres undefined) was tested, and the z-score was -0.0558.
Compound `O=C(Nc1cccc(Cl)c1)c1cnn2cccnc12` has a z-score of 0.216.
`CCS(=O)(=O)N1CCC(C(=O)NCC2CCCO2)CC1` (centres undefined) gave a z-score of 0.112.
For `CCN(CC)C(=O)CSc1nc2ccccc2n1CC(=O)N1CCN(c2ccccc2OC)CC1`, the z-score was 0.337.
With `CC(C)(C)CC(=O)NCc1ccc(F)cc1` the z-score was 0.0781.
For `CCOC(=O)C1CCCN(c2c(N3CCN(C)CC3)c(=O)c2=O)C1` (centres undefined), the z-score was 0.129.
In the case of `O=S(=O)(Nc1nc2ccccc2nc1NCCO)c1cccc(Cl)c1`, the z-score is reported as 0.581.
With `Cc1coc(NC(=O)CSc2nc(-c3ccc(Cl)cc3)cc(C(F)(F)F)c2C#N)n1` the z-score was -0.241.
`Cc1ccc(CNC(=O)CCS(=O)(=O)c2ccc(Br)s2)o1` showed a z-score of 0.422.
Work on `Cc1ccc(NC(=O)c2ocnc2C)cc1Cl` yielded a z-score of -0.249.
For `Nc1nc(Sc2ccc(C(F)(F)F)cn2)n[nH]1`, the z-score was 0.142.
Work on `CCCCCCCCCOC1OC(CO)C(O)C(O)C1NC(C)=O` (centres undefined) yielded a z-score of -0.01.
For `O=C(CSc1nc2ccccc2c(=O)n1Cc1ccco1)c1ccc(F)cc1`, the z-score was 0.0546.
Compound `O=C(CCCCCn1c(=O)[nH]c2ccsc2c1=O)N1CCN(C2CCCCC2)CC1` has a z-score of -1.04.
For `S=c1[nH]cc(-c2ccc(Cl)cc2)n1-c1ccccc1`, the z-score was 1.94.
Work on `O=C(O)C1CCCCN1S(=O)(=O)c1cccc2nsnc12` (centres undefined) yielded a z-score of 0.389.
`CCOC(=O)c1c(NC(=O)c2c(Br)cnn2CC)sc(C)c1C` gave a z-score of -0.131.
Work on `CC1CC(NS(=O)(=O)c2cccs2)CC(C)(C)C1` (centres undefined) yielded a z-score of 0.0261.
Work on `O=C(NCCNc1ccc([N+](=O)[O-])cc1C(F)(F)F)c1ccccc1` yielded a z-score of -0.682.
`CC(=O)c1cccc(NC(=O)COC(=O)[C@@H](NC(=O)OCc2ccccc2)C(C)C)c1` gave a z-score of -0.658.
In the case of `COc1ccc(CNC(=O)c2ccc(NC(=O)CC3SC(N4CCCCC4)=NC3=O)cc2)cc1` (centres undefined), the z-score is reported as -0.0519.
`Cc1ccc(OCC(=O)c2cc(C)c(C)cc2C)c([N+](=O)[O-])n1` was tested, and the z-score was -0.11.
`CCOc1cc(CNCCc2ccc(S(N)(=O)=O)cc2)cc(Cl)c1OCc1ccccc1` gave a z-score of -0.78.
`Cc1[nH]n(-c2ccccc2)c(=O)c1C=Nc1ccc2[nH]c(=O)[nH]c2c1` gave a z-score of -0.336.
In the case of `CC(C)[C@H](NC(=O)NCCc1ccc(Cl)cc1)C(=O)O`, the z-score is reported as 0.54.
With `COc1cccc(CC2CC(=O)N(CCc3ccc4c(c3)OCO4)C2=O)c1` (centres undefined) the z-score was -0.642.
For `Cc1cccc(Oc2cc(N)cc([N+](=O)[O-])c2)c1`, the z-score was -0.714.
With `Cc1ccc(S(=O)(=O)Oc2ccc(/C=C(/NC(=O)c3ccccc3)C(=O)Nc3ccccc3)cc2)cc1` the z-score was -0.00665.
`Nn1c(SCC(=O)N2CCCCCC2)nnc1-c1ccncc1` was tested, and the z-score was -0.448.
Work on `Cc1cc(S(=O)(=O)N2CCN(c3c(C)cccc3C)CC2)ccc1F` yielded a z-score of 0.504.
`CC(C)c1nc(NCC2CCCO2)c(C#N)c2c1COC(C)(C)C2` (centres undefined) showed a z-score of -0.203.
In the case of `S=c1[nH]nc(-c2ccccc2Cl)n1CC1CCCO1` (centres undefined), the z-score is reported as -0.238.
Work on `c1ccc(-n2ncc3c(NCC4CCCO4)ncnc32)cc1` (centres undefined) yielded a z-score of -0.419.
`Cc1noc(C)c1S(=O)(=O)N1CCC2(CC1)OCCO2` showed a z-score of -0.239.
Work on `O=C(CSc1ccc(-c2ccccc2)nn1)c1ccccc1` yielded a z-score of 0.0905.
For `CC1CCCc2sc3nc(NCc4ccco4)n4ncnc4c3c21` (centres undefined), the z-score was -1.17.
In the case of `Cc1ccccc1C(=O)O/N=C1\CCS(=O)(=O)c2sccc21`, the z-score is reported as 0.103.
For `CCOC(=O)N1CCC(NC(=O)C2CCN(C(=O)N3CC(C)Oc4ccc(C)cc43)CC2)CC1` (centres undefined), the z-score was 0.686.
`COc1ccc(S(C)(=O)=O)cc1S(C)(=O)=O` gave a z-score of 0.196.
`CCc1nc(SCC(=O)N2CCC(Cc3ccccc3)CC2)c2c(=O)n(C)c(=O)n(C)c2n1` was tested, and the z-score was -0.415.
Compound `Cc1nc(Cl)c(C(=O)NC(C)(C)C)c(C)c1Cl` has a z-score of 0.0125.
`COc1ccccc1NC(=O)NC(=O)N(C(C)C)S(C)(=O)=O` showed a z-score of -0.531.
In the case of `O=C(Cn1c(=O)oc2ccccc21)Nc1nc(-c2ccc(Br)cc2)cs1`, the z-score is reported as -0.455.
`CC(C)CNC(=S)NNC(=O)c1ccc(OC(F)F)cc1` was tested, and the z-score was -0.0885.
Work on `COc1ccc(-c2nc(C#N)c(N3CC(C)OC(C)C3)o2)cc1OC` (centres undefined) yielded a z-score of -0.128.
Work on `Cc1cc(N2CCN(C)CC2)nc2ccc(NC(=O)c3cccnc3Cl)cc12` yielded a z-score of 0.503.
`Nc1cc(=O)[nH]c(SCC(=O)Nc2ccc(Br)cc2)n1` gave a z-score of 0.115.
Work on `CCc1nnc(NS(=O)(=O)c2ccc(NC(=S)NC(=O)/C=C/c3ccc(OC)cc3)cc2)s1` yielded a z-score of -0.407.
Work on `CC(=O)Nc1ccc(/C(C)=N/NC(=O)c2ccccc2Cl)cc1` yielded a z-score of -0.00163.
`Cc1ccc(-c2nsc(SCC(=O)Nc3ccc4c(c3)OCO4)n2)cc1` gave a z-score of -0.102.
In the case of `O=C(NCCCN1CCOCC1)c1cc(-c2cccs2)on1`, the z-score is reported as 0.133.
With `O=C(Nc1ccc(Cl)c(C(F)(F)F)c1)C1CCCN(S(=O)(=O)c2cnc[nH]2)C1` (centres undefined) the z-score was -0.239.
`Cc1ccc(NCc2nnc(SCC(=O)N(Cc3ccccc3)C(C)(C)C)o2)c(C)c1` showed a z-score of -0.222.
Work on `CCC(C(=O)O/N=C(\N)c1ccc(C)cc1)c1ccccc1` (centres undefined) yielded a z-score of -0.567.
With `Cc1ccccc1-c1n[nH]c(=S)n1/N=C/c1c(C)nn(-c2ccccc2)c1C` the z-score was -0.239.
`COc1ccc(C(=O)Nc2nc3ccc4nc(C)sc4c3s2)cc1` gave a z-score of -0.0988.
`O=C1CSC(c2cccs2)N1c1ccccc1` (centres undefined) was tested, and the z-score was -0.535.
Compound `COC(=O)CSc1snnc1-c1ccc(Cl)cc1Cl` has a z-score of -0.636.
In the case of `O=C(NC1CCCCC1)c1cc([N+](=O)[O-])ccc1N1CCCCC1`, the z-score is reported as -0.0354.
`COc1ccc(Cl)cc1Nc1nc(C)cc(=O)[nH]1` gave a z-score of 0.0899.
With `CC(C)CNc1nc(N)c([N+](=O)[O-])c(NCC2CCCO2)n1` (centres undefined) the z-score was -0.387.
`COc1cccc(-c2nnc(-c3ccc(C)o3)o2)c1` was tested, and the z-score was -0.716.
For `Cc1[nH]n(-c2ccccc2)c(=O)c1/C=N/NC(=O)c1ccoc1C`, the z-score was 0.102.
`Cc1cc(NC(=O)CN2CC(C)OC(C)C2)n(-c2nc3ccccc3s2)n1` (centres undefined) showed a z-score of -0.352.
With `CC(=O)c1ccc(OCC(O)CN2CCN(CCO)CC2)cc1` (centres undefined) the z-score was -0.317.
In the case of `CCNC(=S)NNC(=O)c1cc(-c2cccc(C)c2)nc2ccccc12`, the z-score is reported as 0.214.
Compound `COc1ccc2nc(NC(=O)CCN3C(=O)c4ccccc4C3=O)sc2c1` has a z-score of -0.0132.
`O=C(CNC(=O)c1ccc(Cl)cc1)N/N=C/C=C/c1ccccc1` showed a z-score of 0.787.
With `COc1cc(S(=O)(=O)NCCc2ccc3c(c2)OCO3)ccc1-n1cnnn1` the z-score was -0.733.
`C=CCOC(=O)/C(=C\c1ccccc1)NC(=O)c1ccco1` showed a z-score of -0.214.
With `O=C(Nc1ccc(Cl)cc1C(=O)NCc1cccnc1)c1ccco1` the z-score was -0.0127.
With `CC1=NC(C(F)(F)F)(C(F)(F)F)C(C#N)=C(C)N1` the z-score was -0.0703.
Work on `O=c1[nH][nH]c(-c2ccccc2)c1C=Nc1ccc(Cl)cc1` yielded a z-score of -0.231.
Compound `O=C(CSCCO)Nc1cccc2ccccc12` has a z-score of -0.204.
`CCc1c(C)[nH]c2ccc(C)cc2c1=O` was tested, and the z-score was -0.0673.
Compound `CN(c1ccccc1)S(=O)(=O)c1cccc(NC(=O)CSc2nnc(N)s2)c1` has a z-score of -0.275.
`CCCCOc1ccc(Nc2nc(C)cc(C)c2C#N)cc1` showed a z-score of 0.234.
Compound `Cc1c(C)c2ccc(OCC(=O)N(C)C)c(C)c2oc1=O` has a z-score of -0.421.
For `O=C(COC(=O)c1cc([N+](=O)[O-])ccc1NCCO)c1ccc(Cl)cc1`, the z-score was 0.0834.
`CCN1CCN(C(=O)Nc2ccccc2OC)CC1` gave a z-score of 0.443.
`CCc1ccccc1NC(=O)N[C@H](C(=O)O)C(C)CC` (some centres undefined) gave a z-score of -0.0637.
For `Cc1ccccc1-n1c(C)cc(/C=N/Nc2ccc([N+](=O)[O-])cn2)c1C`, the z-score was 0.435.
Work on `COc1cc(SC)ccc1C(=O)Nc1ccccc1` yielded a z-score of -0.582.
With `Cc1sc2c(c1C)c(=O)nc1n2Cc2ccccc2-1` the z-score was 0.174.
`CCc1ccc(C(=O)NC(=S)Nc2ccc3c(c2)OCCO3)cc1` showed a z-score of 0.946.
